In patent publication US20260184782A1 (TWIST BIOSCIENCE, published 2026):
Positions count from the first letter of the chain named.

Target: T1, TIGIT (T cell immunoreceptor with Ig and ITIM domains) (UniProt Q495A1 22-141, limits assumed)
T1 sequence (looked up): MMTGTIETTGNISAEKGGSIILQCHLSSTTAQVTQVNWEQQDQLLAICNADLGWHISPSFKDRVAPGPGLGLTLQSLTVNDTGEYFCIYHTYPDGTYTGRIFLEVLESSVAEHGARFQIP
Test: SPR (Carterra), VHH-Fc
From the text: The Carterra SPR system was used to assess binding affinity and affinity distribution for VHH-Fc variants. […] Table 5A provides specific values for the VHH-Fc clones for ELISA, Protein A (mg/ml), and KD (nM). FIG. 7A and FIG. 7B depict TIGIT affinity distribution for the VHH libraries, over the 20-4000 affinity threshold (FIG. 7A; monovalent KD) and the 20-1000 affinity threshold (FIG. 7B; monovalent KD).

B1: TIGIT-31-33 (Fc fusion)
chain: EVQLVESGGGLVQPGGSLRLSCAASGFTFSTSWMGWFRQAPGKERELVASITSGGSTNYADSVKGRFTISADNSKNTAYLQMNSLKPEDTAVYYCAADVWYGSTWRNWGQGTLVTVSSGGGGS[in this place human IgG1 Fc with C220S (EU numbers)]
notes: VHH-Fc
Kd: 96 nM

B2: TIGIT-30-01 (Fc fusion)
chain: EVQLVESGGGLVQAGGSLRLSCAASGFAFSSYWMGWFRQAPGKERELVAARNSGGNTNYADSVKGRFTISADNAKNTVYLQMNSLKPEDTAVYYCAADVWYGSTWRNWGQGTQVTVSSGGGGS[in this place human IgG1 Fc with C220S (EU numbers)]
notes: VHH-Fc; also called 30-1
Kd: 71 nM

B3: TIGIT-30-39 (Fc fusion)
chain: B1 chain with P14A, L47W, A49V, S50G, T52S, N58H, S74A, A78V, L113Q
notes: VHH-Fc
Kd: 88 nM

B4: TIGIT-30-40 (Fc fusion)
chain: B2 chain with A28T, S31G, Y32N, L47W, A49V, A50G, R51I, N52S, N56S, N58H
notes: VHH-Fc
Kd: 99 nM

B5: TIGIT-31-18 (Fc fusion)
chain: B1 chain with T31G, S32N, L47F, T52S, G55S, S56A, T57I
notes: VHH-Fc
Kd: 99 nM

B6: TIGIT-31-20 (Fc fusion)
chain: B1 chain with T31G, S32N, L47F, S50G, T52L, G54D, S56R, T57E, N58L
notes: VHH-Fc
Kd: 74 nM

B7: TIGIT-31-35 (Fc fusion)
chain: B1 chain with S56T
notes: VHH-Fc
Kd: 66 nM

B8: TIGIT-31-39 (Fc fusion)
chain: B1 chain with S50G, I51V, T52N, G54N, S56Y, T57I
notes: VHH-Fc
Kd: 78 nM

B9: TIGIT-31-47 (Fc fusion)
chain: B1 chain with T31G, S32N, L47W, A49V, S50G, T52S, S56T, T57P, N58H
notes: VHH-Fc
Kd: 53 nM

B10: TIGIT-31-15 (Fc fusion)
chain: EVQLVESGGGLVQPGGSLRLSCAASGFTFSTYGMGWFRQAPGKEREFVAAISWSGVSKHYADSVKGRFTISADNSKNTAYLQMNSLKPEDTAVYYCASSPYGPLYRSTHYYDWGQGTLVTVSSGGGGS[in this place human IgG1 Fc with C220S (EU numbers)]
notes: VHH-Fc
Kd: 88 nM

B11: TIGIT-30-5 (Fc fusion)
chain: B10 chain with P14A, F27G, S30R, T31N, F47L, K58T, H59I, S75A, A79V, L118Q
notes: VHH-Fc
Kd: 100 nM

B12: TIGIT-31-10 (Fc fusion)
chain: B10 chain with F27H, T31S, F47L, V56I, K58T, H59I
notes: VHH-Fc
Kd: 94 nM

B13: TIGIT-31-27 (Fc fusion)
chain: B10 chain with S30G, T31H, G33A, K58T, H59Y
notes: VHH-Fc
Kd: 96 nM

B14: TIGIT-29-12 (Fc fusion)
chain: EVQLVESGGGLVQAGGSLRLSCAASGSTFSSYAMGWFRQAPGKEREFVAAITWSGTRTNYADSVKGRFTISADNAKNTVYLQMNSLKPEDTAVYYCAAAAWTIYTYDSWGQGTQVTVSSGGGGS[in this place human IgG1 Fc with C220S (EU numbers)]
notes: VHH-Fc
Kd: 70 nM

B15: TIGIT-29-03 (Fc fusion)
chain: B14 chain with S27F, N59D, T102R, I103Y, Y104S, T105E, S108Y
notes: VHH-Fc; also called 29-3
Kd: 94 nM

B16: TIGIT-29-21 (Fc fusion)
chain: B14 chain with S31N, F47L, A49S, G55S, T56S, N59Y, T105N, Y106F, D107E, S108Y
notes: VHH-Fc
Kd: 88 nM

B17: TIGIT-29-30 (Fc fusion)
chain: B14 chain with S27F, N59D, T102R, I103Y, Y104S, T105E, S108Y
notes: VHH-Fc
Kd: 65 nM

B18: TIGIT-29-33 (Fc fusion)
chain: EVQLVESGGGLVQAGGSLRLSCAASGFIFSTYAMGWFRQAPGKERELVSAITRSGITTYYADSVKGRFTISADNAKNTVYLQMNSLKPEDTAVYYCAAAAWTIYEYDYWGQGTQVTVSSGGGGS[in this place human IgG1 Fc with C220S (EU numbers)]
notes: VHH-Fc
Kd: 74 nM

B19: TIGIT-29-37 (Fc fusion)
chain: B14 chain with S27R, S31N, A50G, T52S, N59Y, T105E, S108Y
notes: VHH-Fc
Kd: 89 nM

B20: TIGIT-29-40 (Fc fusion)
chain: B14 chain with S27F, S30D, S31N, A50T, T105D, S108Y
notes: VHH-Fc
Kd: 90 nM

B21: TIGIT-30-52 (Fc fusion)
chain: EVQLVESGGGLVQAGGSLRLSCAASGRTFSNYFMGWFRQAPGKERESVATVTWRDNITYYADSVKGRFTISADNAKNTVYLQMNSLKPEDTAVYYCASAGRWGQGTQVTVSSGGGGS[in this place human IgG1 Fc with C220S (EU numbers)]
notes: VHH-Fc
Kd: 49 nM

B22: TIGIT-30-53 (Fc fusion)
chain: B21 chain with R27L, F33V, T50A, V51I, T52N, R54D, D55S, N56A, I57R
notes: VHH-Fc
Kd: 78 nM

B23: TIGIT-30-15 (Fc fusion)
chain: EVQLVESGGGLVQAGGSLRLSCAASGFTFSGNWMGWFRQAPGKEREWVSGISSGGGRTYYADSVKGRFTISADNAKNTVYLQMNSLKPEDTAVYYCAADVWYGSTWRNWGQGTQVTVSSGGGGS[in this place human IgG1 Fc with C220S (EU numbers)]
notes: VHH-Fc
Kd: 55 nM

B24: TIGIT-30-54 (Fc fusion)
chain: EVQLVESGGGLVQAGGSLRLSCAASGFTFRSFGMGWFRQAPGKEREFVASTIWSRGDTYYADSVKGRFTISADNAKNTVYLQMNSLKPEDTAVYYCASSPYGPLYRSTHYYDWGQGTQVTVSSGGGGS[in this place human IgG1 Fc with C220S (EU numbers)]
notes: VHH-Fc
Kd: 58 nM

B25: TIGIT-30-49 (Fc fusion)
chain: EVQLVESGGGLVQAGGSLRLSCAASGNIFSRYIMGWFRQAPGKEREWVAGISNGGTTKYADSVKGRFTISADNAKNTVYLQMNSLKPEDTAVYYCAQGWKIVPTNWGQGTQVTVSSGGGGS[in this place human IgG1 Fc with C220S (EU numbers)]
notes: VHH-Fc
Kd: 62 nM

B26: TIGIT-29-18 (Fc fusion)
chain: EVQLVESGGGLVQAGGSLRLSCAASGSTFSNYAMGWFRQAPGKEREFVSAINSSGSRTYYADSVKGRFTISADNAKNTVYLQMNSLKPEDTAVYYCAARLWGTWTAGDYDYWGQGTQVTVSSGGGGS[in this place human IgG1 Fc with C220S (EU numbers)]
notes: VHH-Fc
Kd: 78 nM

B27: TIGIT-29-22 (Fc fusion)
chain: B26 chain with T28I, F29L, N31S, A33T, A50T, N52S, S53R, G55S, S56T
notes: VHH-Fc
Kd: 65 nM

B28: TIGIT-29-34 (Fc fusion)
chain: B26 chain with S27F, S30R, A50S, N52S, G55S, Y59S
notes: VHH-Fc
Kd: 80 nM
